Test results published in article PMC12040169 (PLOS Biology, 2025).
The other results are listed elsewhere or left out.

What follows are compounds tested on T1, C. trachomatis L2/434/Bu expressing GFP (CTL2-GFP). Settings: total inclusion area; 28.5 h, 10 µM; inhibitor.
T1 construct: L2/434/Bu GFP intracellular growth in HeLa cells
Parameters: species or system HeLa; C. trachomatis total inclusion area by high-content imaging, normalised to DMSO
In short: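 Host cell viability was gauged from Hoechst-stained nuclei counts, while chlamydial growth was taken from total inclusion area and inclusion number per well. Cells were fixed and imaged by high-content microscopy once bulk GFP and resorufin fluorescence had been measured.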
In the case of COc1ccccc1CC(=O)NCc1nc(-c2cccc(C)c2)no1 [CBK269336], the “% of control remaining” value is reported as 80.3062.
Cn1c(COc2cccc3cccnc23)nnc1SCC(=O)O [CBK300505] was tested, and the “% of control remaining” value was 111.453.
COc1ccc(C)cc1S(=O)(=O)N(CC(=O)Nc1ccccc1C)c1ccc(Cl)cc1 [CBK267995] was tested, and the “% of control remaining” value was 96.2032.
With Cc1ccnc2nc(C(=O)Nc3ccc4c(c3)CCC4)nn12 [CBK295194] the “% of control remaining” value was 110.781.
CCCc1cc(C2CCCCCN2C(=O)c2cccnc2)no1 (stereo not shown) [CBK282987] was tested, and the “% of control remaining” value was 118.154.
COc1ccc2c(CC(=O)Nc3cccc(-c4csc(C)n4)c3)coc2c1 [CBK295149] was tested, and the “% of control remaining” value was 108.968.
For O=S(=O)(c1ccccc1)c1cn2ccnc2c(N2CCNCC2)n1 [CBK200021T], the “% of control remaining” value was 95.8339.
In the case of CC(C)c1ccc(S(=O)(=O)N(C)Cc2cccnc2)cc1 [CBK043582], the “% of control remaining” value is reported as 82.7542.
With CC(=O)Nc1ccc(C(=O)N2CCC(c3cccc(Cc4ccccc4Cl)n3)CC2)cc1 [CBK286111] the “% of control remaining” value was 127.121.
CN(C)CCNc1nccc2sc(S(=O)(=O)NCCC3=CCCCC3)cc12 [CBK038244C] was tested, and the “% of control remaining” value was 62.1885.
With Cc1nccn1CCCn1cncc1-c1ccc2c(c1)CCCN2C [CBK282962] the “% of control remaining” value was 81.1327.
For COc1ccc(C)cc1S(=O)(=O)N(C)CC(=O)O [CBK267863], the “% of control remaining” value was 120.256.
In the case of COc1cc(C2c3c(oc4ccc(Cl)cc4c3=O)C(=O)N2CC2CCCO2)ccc1OCc1ccccc1 (stereo not shown) [CBK267581], the “% of control remaining” value is reported as 95.219.
With CC(=O)Nc1ccc(NC(=O)C2COc3ccccc3O2)cc1C (stereo not shown) [CBK269898] the “% of control remaining” value was 91.474.
For Fc1ccccc1CSc1nc2ncccc2[nH]1 [CBK287883], the “% of control remaining” value was 83.272.
For CCCCN(C)C(=O)Cn1nc(C)c2ccccc2c1=O [CBK305050], the “% of control remaining” value was 87.476.
With CCC(CO)NC(=O)c1cnc(-c2cccc(C)c2)c(-c2ccc(OC)cc2)c1 (stereo not shown) [CBK037460] the “% of control remaining” value was 142.973.
For COc1ccccc1NC(=O)CSc1nnc(-c2ccncc2)o1 [CBK287743], the “% of control remaining” value was 73.5169.
With Cn1nc(C(C)(C)C)cc1C(=O)N1CCNC(=O)C1Cc1ccc(-c2cccs2)cc1 (stereo not shown) [CBK285810] the “% of control remaining” value was 115.412.
O=C(Nc1ccccc1C(=O)O)c1cccc(-n2cnnc2)c1 [CBK269769] was tested, and the “% of control remaining” value was 94.7679.
In the case of Cc1[nH]c2ccccc2c1/C=C1/SC(=S)N(CC(=O)O)C1=O [CBK262220], the “% of control remaining” value is reported as 87.1433.
For COc1ccc(CN2CC[C@@H]3[C@H](C2)[C@@H](c2ccc(F)cc2)CN3C(=O)c2ccccc2)cc1 [CBK286290], the “% of control remaining” value was 69.4968.
